Source: PubChem BioAssay AID504845 (National Center for Advancing Translational Sciences (NCATS), 2011)
About 150 (0.038%) of roughly 390,000 compounds were called active. This list was built around the results that the source calls inconclusive (neither active nor inactive); the mix of calls is not that of the screen. The call rests on the fitted dose curve; in most records, active means well fitted inhibition curve with a large enough effect; inconclusive means small, poorly fitted or top-dose-only effect; inactive means no such curve, though single readings can be large or run the other way. Where the call is inconclusive, the potency comes from a doubtful curve fit.

Each molecule was assayed against Regulator of G-protein signaling 4 (Homo sapiens) (UniProt P49798) (assay: Inhibitors of Regulator of G Protein Signaling (RGS) 4: qHTS). Conditions: Transcreener GDP fluorescence polarization, RGS4-accelerated GTP hydrolysis; series mostly up to 114 µM.
Sequence of UniProt P49798 (P49798 whole entry, looked up): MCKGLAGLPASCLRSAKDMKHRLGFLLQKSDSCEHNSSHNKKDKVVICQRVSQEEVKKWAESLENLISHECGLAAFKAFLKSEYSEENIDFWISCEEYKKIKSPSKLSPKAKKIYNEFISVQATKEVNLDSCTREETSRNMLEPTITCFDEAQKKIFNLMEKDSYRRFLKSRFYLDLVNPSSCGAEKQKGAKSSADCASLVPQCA
Method in brief: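 MLSMR compounds (23 nl, pin-transferred) preincubated 10 min at room temperature with a 500nM (2x) first reagent, then RGS4 at 900nM (2x) plus Transcreener GDP mix added; fluorescence polarization (620/688 nm) read before and after 90 min at 30 °C.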
Further: nearly all actives have a fitted effect of over 75% in size.
Potency means the concentration at half of the fitted maximal effect; tags describe the fitted curve by direction and shape.

| SMILES | Potency |
| --- | --- |
| Cc1ccccc1NC(=O)CN1C(=O)COc2ccc(Cl)cc21 | inconclusive: 89.1 µM [inhibitor, single point] |
| Cc1cc(C)c2ccc(=S)[nH]c2n1 | inconclusive: 50.1 µM [inhibitor, partial curve, poor fit] |
| O=[N+]([O-])c1ccccc1COc1ccc(Cl)c2cccnc12 | inconclusive: 56.2 µM [inhibitor, partial curve, poor fit] |
| CCCCn1c(N)c(N(Cc2ccccc2OC)C(=O)CSCC(=O)Nc2cccc(C)c2)c(=O)[nH]c1=O | inconclusive: 50.1 µM [inhibitor, partial curve, poor fit] |
| CCN(CC)c1cc(C)c2cc(NC(=O)/C=C/c3cc(OC)c(OC)c(OC)c3)ccc2n1 | inconclusive: 39.8 µM [inhibitor, partial curve, poor fit] |
| COC(=O)C1=CN(c2ccc(F)cc2)C=C(C(=O)OC)C1c1cccc([N+](=O)[O-])c1 | inactive |
| CCC(=O)OCOc1ccc(/C=C2/CCC(CN(C)C)C2=O)cc1 (stereo not drawn) | inconclusive: 44.7 µM [inhibitor, partial curve, poor fit] |
| Cc1ccc(C(=O)Nc2nc(-c3ccccn3)cs2)cc1S(=O)(=O)N1CCOCC1 | inconclusive: 22.4 µM [inhibitor, full curve, poor fit] |
| CC(=O)Nc1ccc(N2CCN(C(=O)c3cccs3)CC2)cc1 | inactive |
| O=S(=O)(c1ccc(F)cc1)N1CCN(Cc2cc3c(cc2Br)OCCO3)CC1 | inactive |
| C[C@@]12C(=O)Nc3ccc(F)cc3C(=O)N1[C@H]1c3ccccc3OC[C@@H]1[C@@H]2c1ccccc1 | inconclusive: 44.7 µM [inhibitor, partial curve, poor fit] |
| COc1ccc(CNC(=O)CN(C)S(=O)(=O)c2ccc3nc(C)sc3c2)cc1 | inactive |
| CCOC(=O)c1cc2c(=Cc3ccc(N(C)C)cc3)c3ccccc3n2[n+]1C | inconclusive: 79.4 µM [inhibitor, partial curve, poor fit] |
| c1ccc(-c2ccc(C3=Nn4c(Cn5nnc6ccccc65)nnc4SC3)cc2)cc1 | inconclusive: 50.1 µM [inhibitor, partial curve, poor fit] |
| CC(C)Sc1nnc(-c2c[nH]c3ccccc23)n1C | inactive |
| COc1ccc(C(C)NCCC(c2ccc(OC(C)C)cc2)c2ccccc2OC)cc1 (stereo not drawn) | inactive |
| COc1ccc(NC(=O)c2ccco2)cc1NC(=O)C(C)(C)Oc1ccc(Cl)cc1 | inactive |
| CNc1ccc(Br)cc(C(=O)/C=C/c2cccc(OC)c2)c1=O | inconclusive: 44.7 µM [inhibitor, partial curve, poor fit] |
